{"source": "the supplement of paper PMC8728848", "binders": {"B1": {"name": "MPA (Maclura pomifera) (protein)", "chain": "GVTFDDGAYTGIREINFEYNSETAIGGLRVTYDLNGMPFVAEDHKSFITGFKPVKISLEFPSEYIVEVSGYVGKVEGYTVIRSLTFKTNKQTYGPYGVTNGTPFSLPIENGLIVGFKGSIGYWLDYFSIYLSLNGPNGKSQSIIVGPWGDRVTN"}}, "assay_in_all_cases": "glycan array binding signal (z-score within array); higher = stronger binding", "conditions_in_all_cases": "glycan notation: IUPAC condensed, linker removed", "key": {"[1]": {"biological_target": "Neu5Ac(a2-8)Neu5Ac(a2-3)[GalNAc(b1-4)]Gal(b1-4)Glc", "method_in_brief": "(§1)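 Glycan array binding is given as a within-array Z-score, which can be read as non-binding when negative. The arrays, 3228 of them, came from the Consortium for Functional Glycomics database and were retained only where the protein sequence was available. Z-scores were averaged across arrays of the same protein sequence at different concentrations or buffers and across linkers.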"}, "[2]": {"biological_target": "Neu5Ac(a2-8)Neu5Ac(a2-8)Neu5Ac", "method_in_brief": "as §1"}, "[3]": {"biological_target": "Neu5Ac(a2-8)Neu5Ac(a2-8)Neu5Ac(a2-3)Gal(b1-4)Glc", "method_in_brief": "as §1"}, "[4]": {"biological_target": "Neu5Ac(a2-8)Neu5Ac(a2-8)Neu5Ac(a2-3)[GalNAc(b1-4)]Gal(b1-4)Glc", "method_in_brief": "as §1"}, "[5]": {"biological_target": "Neu5Ac(a2-8)Neu5Ac(a2-8)Neu5Ac(a2-8)Neu5Ac(a2-3)[GalNAc(b1-4)]Gal(b1-4)Glc", "method_in_brief": "as §1"}, "[6]": {"biological_target": "Neu5Ac(b1-6)GalNAc", "method_in_brief": "as §1"}, "[7]": {"biological_target": "Neu5Ac(b2-6)Gal(b1-4)GlcNAc", "method_in_brief": "as §1"}, "[8]": {"biological_target": "Neu5Ac9Ac(a2-6)Gal(b1-4)GlcNAc", "method_in_brief": "as §1"}, "[9]": {"biological_target": "Neu5Gc(a2-3)Gal(b1-3)GlcNAc", "method_in_brief": "as §1"}, "[10]": {"biological_target": "Neu5Gc(a2-3)Gal(b1-3)[Fuc(a1-4)]GlcNAc", "method_in_brief": "as §1"}, "[11]": {"biological_target": "Neu5Gc(a2-3)Gal(b1-4)Glc", "method_in_brief": "as §1"}, "[12]": {"biological_target": "Neu5Gc(a2-3)Gal(b1-4)GlcNAc", "method_in_brief": "as §1"}, "[13]": {"biological_target": "Neu5Gc(a2-3)Gal(b1-4)[Fuc(a1-3)]GlcNAc", "method_in_brief": "as §1"}, "[14]": {"biological_target": "Neu5Gc(a2-6)Gal(b1-4)GlcNAc", "method_in_brief": "as §1"}, "[15]": {"biological_target": "Neu5Gc(a2-6)GalNAc", "method_in_brief": "as §1"}}, "note": "Some of the results follow.", "data": [{"binder": "B1", "values": [{"measurement": "glycan array binding signal (z-score)", "setting": "[1]", "result": -0.249}, {"measurement": "glycan array binding signal (z-score)", "setting": "[2]", "result": -0.244}, {"measurement": "glycan array binding signal (z-score)", "setting": "[3]", "result": -0.244}, {"measurement": "glycan array binding signal (z-score)", "setting": "[4]", "result": -0.251}, {"measurement": "glycan array binding signal (z-score)", "setting": "[5]", "result": -0.249}, {"measurement": "glycan array binding signal (z-score)", "setting": "[6]", "result": -0.245}, {"measurement": "glycan array binding signal (z-score)", "setting": "[7]", "result": -0.247}, {"measurement": "glycan array binding signal (z-score)", "setting": "[8]", "result": -0.233}, {"measurement": "glycan array binding signal (z-score)", "setting": "[9]", "result": -0.241}, {"measurement": "glycan array binding signal (z-score)", "setting": "[10]", "result": -0.217}, {"measurement": "glycan array binding signal (z-score)", "setting": "[11]", "result": -0.245}, {"measurement": "glycan array binding signal (z-score)", "setting": "[12]", "result": -0.245}, {"measurement": "glycan array binding signal (z-score)", "setting": "[13]", "result": -0.222}, {"measurement": "glycan array binding signal (z-score)", "setting": "[14]", "result": -0.252}, {"measurement": "glycan array binding signal (z-score)", "setting": "[15]", "result": -0.245}]}]}
